Assay results reported in PubChem BioAssay AID2147 (National Center for Advancing Translational Sciences (NCATS), 2009).
Where “and” joins values, the source holds several entries; their conditions need not be identical. Equal values may be shown once. Out of some 230,000 compounds screened, about 3,600 (1.6%) were called active. The shares of active, inactive and inconclusive entries below differ from those in the screen. Calls come from the whole dose curve; as a rule, active = well fitted inhibition curve with a large enough effect (not every such curve was filed as active); inconclusive = small, poorly fitted or top-dose-only effect, or another doubt; inactive = no such curve, though single readings can be large or run the other way. Potencies beside an inconclusive call are fits to weak or partial responses and may not hold up.
Note: nearly all actives have a fitted effect of over 50% in size.
Potency is the fitted concentration of half-maximal effect; tags give direction and shape of the fitted curve.

Each compound was assayed against Lysine-specific demethylase 4E (Homo sapiens) (UniProt B2RXH2) (assay: qHTS Assay for Inhibitors of Human Jumonji Domain Containing 2E (JMJD2E)). Settings: JMJD2E catalytic domain, FDH-coupled NADH fluorescence (FDH is formaldehyde dehydrogenase); series mostly up to 57.1 µM.
Chain of UniProt B2RXH2 (B2RXH2 whole entry, looked up, the tested form may be a part): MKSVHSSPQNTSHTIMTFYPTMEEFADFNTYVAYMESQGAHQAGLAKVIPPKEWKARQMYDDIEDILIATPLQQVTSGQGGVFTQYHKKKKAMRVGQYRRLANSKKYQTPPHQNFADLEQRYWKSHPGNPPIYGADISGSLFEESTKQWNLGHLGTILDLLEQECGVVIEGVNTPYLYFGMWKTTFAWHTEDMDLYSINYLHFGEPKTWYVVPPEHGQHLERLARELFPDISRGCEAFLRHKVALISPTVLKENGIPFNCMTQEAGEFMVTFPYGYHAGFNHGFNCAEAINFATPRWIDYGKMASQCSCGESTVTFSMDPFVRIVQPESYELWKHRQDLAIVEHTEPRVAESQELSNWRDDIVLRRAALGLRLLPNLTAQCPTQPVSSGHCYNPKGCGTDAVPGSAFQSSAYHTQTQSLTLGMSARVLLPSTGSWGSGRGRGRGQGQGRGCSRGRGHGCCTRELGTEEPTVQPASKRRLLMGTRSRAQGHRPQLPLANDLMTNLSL
In the case of `CN(C)CCOc1ccccc1C(C)(C)C`, the Potency is reported as inconclusive: 35.5 µM [inhibitor, partial curve, poor fit].
In the case of `Cc1nn(-c2ccccc2)c(Cl)c1/C=N/Nc1ccc(Cl)c(C(=O)O)c1`, the Potency is reported as “inactive”.
For `CCOC(=O)C1=C(C)NC(=O)NC1c1ccc(OCC(N)=O)cc1` (stereo not drawn), the Potency was “inactive”.
`N=C1C(c2nc3ccccc3c(=O)[nH]2)=C(O)CN1c1ccccc1` was tested, and the Potency was inconclusive: 7.94 µM [inhibitor, full curve].
In the case of `C/C=C/C=N/NC(=O)CN(c1ccc(Br)cc1)S(=O)(=O)c1ccccc1`, the Potency is reported as “inactive”.
`Cc1ccc(OCC(=O)N/N=C/c2cn(Cc3ccccc3)c3ccccc23)cc1` was tested, and the Potency was “inactive”.
`CCN(Cc1cc2cc(OC)ccc2[nH]c1=O)C(=O)c1ccncc1` was tested, and the Potency was inconclusive: 35.5 µM [inhibitor, partial curve].
For `O=C1NC(c2ccc(Br)cc2)Nc2sc3c(c21)CCC3` (stereo not drawn), the Potency was “inactive”.
`CN(C)/C=N/c1sc2c(c1C#N)CCC2` was tested, and the Potency was inconclusive: 39.8 µM [inhibitor, single point].
`Cc1ccc(-c2nnc3ccc(SCC(=O)Nc4cc(C)on4)nn23)cc1` was tested, and the Potency was inconclusive: 39.8 µM [inhibitor, single point].
`Cc1cc(C(=O)NC(CC(C)C)C(=O)O)cc(C)c1[N+](=O)[O-]` (stereo not drawn) was tested, and the Potency was inconclusive: 12.6 µM [inhibitor, partial curve].
`O=C(O)CCc1ccc(-c2ccccc2)n1Cc1ccco1` was tested, and the Potency was inconclusive: 28.2 µM [inhibitor, partial curve].
In the case of `CCOC(=O)CSc1nc(C2CC2)cc(-c2ccc(Cl)cc2)c1C#N`, the Potency is reported as inconclusive: 31.6 µM [inhibitor, single point].
`O=C(Nc1cccc(C(F)(F)F)c1)c1cccnc1N1CCN(c2ccccc2)CC1` was tested, and the Potency was inconclusive: 35.5 µM [inhibitor, single point].
`COC(=O)C1=C(C)Nc2nc3ccccc3n2C1c1ccccc1F` (stereo not drawn) was tested, and the Potency was inconclusive: 35.5 µM [inhibitor, single point].
`COc1ccc(N2CC(O)=C(c3nc(-c4ccc(F)cc4)cs3)C2=N)cc1` was tested, and the Potency was inconclusive: 31.6 µM [inhibitor, single point].
`NC(N)=NC(N)=Nc1ccc2ccccc2c1` was tested, and the Potency was inconclusive: 39.8 µM [inhibitor, single point].
In the case of `CCOc1ccccc1NC(=O)CC1Nc2cc(C)c(C)cc2NC1=O` (stereo not drawn), the Potency is reported as inconclusive: 31.6 µM [inhibitor, single point].
For `O=C(O)c1cccc(-c2ccc(/C=N/Nc3ccc([N+](=O)[O-])cc3)o2)c1`, the Potency was inconclusive: 39.8 µM [inhibitor, single point].
In the case of `COc1cccc([C@@H]2Oc3ccc(OC)cc3C(=O)[C@H]2OC(=O)NCc2ccc3c(c2)OCO3)c1`, the Potency is reported as inconclusive: 28.2 µM [inhibitor, partial curve] and inconclusive: 31.6 µM [inhibitor, single point].
For `O=C(O)c1ccccc1-n1ncc2c1/C(=C/c1ccc(Cl)cc1)CC2`, the Potency was inconclusive: 39.8 µM [inhibitor, single point].
For `O=C(NC1(C(F)(F)F)NC(=O)N(Cc2ccco2)C1=O)c1cccnc1` (stereo not drawn), the Potency was “inactive”.
In the case of `CCOC(=O)N1CCC(NC(=O)c2cnn3cccnc23)CC1`, the Potency is reported as inconclusive: 28.2 µM [inhibitor, partial curve].
With `CCn1c(CC(=O)Nc2ccc(C)cc2)nnc1SCC(=O)Nc1nc(C)cs1` the Potency was inconclusive: 39.8 µM [inhibitor, single point].
With `CCn1cc(C(=O)O)c(=O)c2cc(F)c(N3CCN(C(=S)NC(=O)c4ccccc4C)CC3)cc21` the Potency was inconclusive: 35.5 µM [inhibitor, partial curve].
With `O=C(c1cc2c(=O)n3ccccc3nc2s1)N1CCN(Cc2ccc3c(c2)OCO3)CC1` the Potency was inconclusive: 28.2 µM [inhibitor, partial curve].
In the case of `CN(C)CCNC(=S)Nc1ccc(-c2nc3ccccc3[nH]2)cc1`, the Potency is reported as inconclusive: 31.6 µM [inhibitor, single point].
`CCOc1ccc(C(=O)/C=C/c2cn(CN3CCN(C)CC3)c3ccccc23)cc1` was tested, and the Potency was inconclusive: 28.2 µM [inhibitor, partial curve].
With `CCc1cc(=O)oc2cc(OCC(=O)N3CCCc4ccccc43)ccc12` the Potency was inconclusive: 35.5 µM [inhibitor, single point].
With `Cc1ccccc1-n1c(-c2ccco2)n[nH]c1=S` the Potency was inconclusive: 35.5 µM [inhibitor, single point].
`COC(=O)c1sc(NC(=O)CSc2nncs2)c(C(=O)OC)c1C` was tested, and the Potency was inconclusive: 3.98 µM [inhibitor, single point].
`Cc1ccc(-n2nc(-c3ccco3)cc2C(=O)O)cc1` was tested, and the Potency was inconclusive: 31.6 µM [inhibitor, single point].
In the case of `COc1ccc2c(C)cc(Sc3nnnn3-c3ccccc3)nc2c1`, the Potency is reported as inconclusive: 28.2 µM [inhibitor, single point].
With `O=c1c2ccccc2nc2n1CCN2Cc1ccc(Cl)cc1` the Potency was inconclusive: 25.1 µM [inhibitor, partial curve].
In the case of `COC(=O)c1[nH]c2ccc(Cl)cc2c1NC(=O)CN1CCC(C(N)=O)CC1`, the Potency is reported as inconclusive: 39.8 µM [inhibitor, single point].
For `Cc1n[nH]c(C)c1CCN(C)Cc1cn(C)nc1-c1ccccc1F`, the Potency was inconclusive: 39.8 µM [inhibitor, single point].
In the case of `CC(C)n1c(NCCO)nc2ccccc21`, the Potency is reported as inconclusive: 20 µM [inhibitor, partial curve].
`COc1cc(NC(=O)c2ccccc2Cl)c(OC)cc1NC(=O)CN1CCOCC1` was tested, and the Potency was “inactive”.
With `Cn1c(CN2CCCC2)nc2cc(NC(=O)c3cccs3)ccc21` the Potency was inconclusive: 25.1 µM [inhibitor, single point].
`CCOC(=O)c1nn(-c2ccc(Br)cc2)cc1C(=O)c1cccc2ccccc12` was tested, and the Potency was “inactive”.
With `Cn1nc(OCC(N)=O)ccc1=O` the Potency was “inactive”.
In the case of `CCN(CCO)Cc1csc2ccc(C(C)(C)C)cc12`, the Potency is reported as inconclusive: 39.8 µM [inhibitor, single point].
For `O=C(NNc1ccccc1Br)C(=O)n1ccc2ccccc21`, the Potency was “inactive”.
